The results in this text go back to the supplement of paper PMC4604168 (melanoma cell lines).

Test systems include G361; IPC-298; IST-MEL1; LB2518-MEL; LOXIMVI; MEL-HO; MZ2-MEL; MeWo; RPMI7951; RVH-421.
Experiment in all cases: cell count relative to DMSO control; melanoma cells; higher = more viable cells
Conditions in all cases: library dose: standard library concentration; 72 h

Structures are written as SMILES. The list shows a part of the results. Many values rest on one well or one pass, so single values are uncertain.
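Further: cells treated in 1,536-well plates, then fixed and DAPI-stained, with nuclei counted from automated high-throughput microscope images.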

On to `C[C@]1(O)C[C@@H](c2nc(-c3ccc4ccc(-c5ccccc5)nc4c3)c3c(N)nccn32)C1` + c1cc(-c2cnn3cc(-c4ccc(OCCN5CCCCC5)cc4)cnc23)ccn1 [Dorsomorphin] (first compound 2 µM, partner dose 2 µM), for which the cell count in the test on G361 is 52.7%; in the test with IPC-298, 80.4%; with IST-MEL1 it was 77.7%; in the test with LB2518-MEL it was 60.9%; in the test with LOXIMVI it was 89.1%; in the test on MEL-HO, 81.9%. For the same molecule, the cell count in the test with MZ2-MEL amounted to 59%; with MeWo it was 69%; in the test on RPMI7951, 50.9%; in the test on RVH-421 it was 76.5%.
`Cn1cnc2c(F)c(Nc3ccc(Br)cc3Cl)c(C(=O)NOCCO)cc21` [selumetinib] + Nc1ncn([C@H]2C[C@H](O)[C@@H](CO)O2)c(=O)n1 [decitabine] (first compound 0.075 µM, partner dose 0.5 µM): the cell count was found to be 53.6% in the test on G361; 43.5% in the test with IPC-298; 74.3% with IST-MEL1; 46.1% in the test on LB2518-MEL; 121% in the test on LOXIMVI; 65% in the test with MEL-HO. The cell count came out at 60.9% with MZ2-MEL, 68.9% with MeWo, 82.7% in the test on RPMI7951 and 73.2% with RVH-421.
For the molecule `Cn1cnc2c(F)c(Nc3ccc(Br)cc3Cl)c(C(=O)NOCCO)cc21` [selumetinib] + CC(=O)c1c(C)c2cnc(Nc3ccc(N4CCNCC4)cn3)nc2n(C2CCCC2)c1=O [palbociclib] (first compound 0.075 µM, partner dose 0.2 µM), the cell count was 46.1% with G361; 38.7% in the test on IPC-298; 65.2% in the test on IST-MEL1; 44.1% in the test with LB2518-MEL; 71.5% with LOXIMVI; 67.4% with MEL-HO. For the same molecule, the cell count amounted to 43.4% in the test on MZ2-MEL, 43.6% in the test on MeWo, 63.5% in the test on RPMI7951 and 55.5% in the test on RVH-421.
Regarding `C[C@]1(O)C[C@@H](c2nc(-c3ccc4ccc(-c5ccccc5)nc4c3)c3c(N)nccn32)C1` + Oc1cc(-c2nc(-c3ccccc3)[nH]c2-c2ccncc2)ccc1Cl [L779450] (first compound 2 µM, partner dose 1 µM), the cell count in the test on G361 stood at 45.4%; with IPC-298, 72.5%; with IST-MEL1, 78.5%; with LB2518-MEL it was 83.1%; in the test with LOXIMVI, 89.1%; with MEL-HO, 77.8%. Further, the cell count with MZ2-MEL is 93.3%; in the test with MeWo, 66.5%; in the test on RPMI7951 it was 67%; in the test on RVH-421, 68.8%.
As for `Cn1cnc2c(F)c(Nc3ccc(Br)cc3Cl)c(C(=O)NOCCO)cc21` [selumetinib] + CN(c1ncccc1CNc1nc(Nc2ccc3c(c2)CC(=O)N3)ncc1C(F)(F)F)S(C)(=O)=O [PF562271] (first compound 0.075 µM, partner dose 0.4 µM), the cell count in the test with G361 came out at 67.7%; in the test on IPC-298, 40.4%; with IST-MEL1 it was 80.2%; in the test with LB2518-MEL it was 35%; in the test on LOXIMVI, 149%; in the test with MEL-HO it was 84%. Further, the cell count was found to be 61.1% with MZ2-MEL, 82.4% with MeWo, 65.9% in the test on RPMI7951 and 74.5% with RVH-421.
For `COc1cc([C@@H]2c3cc4c(cc3[C@@H](O[C@@H]3O[C@@H]5CO[C@@H](C)O[C@H]5[C@H](O)[C@H]3O)[C@H]3COC(=O)[C@H]23)OCO4)cc(OC)c1O` [etoposide] + Clc1ccc(Nc2nnc(Cc3ccncc3)c3ccccc23)cc1 [vatalanib] (first compound 0.1 µM, partner dose 10 µM), the cell count in the test with G361 turned out to be 75.3%; in the test on IPC-298 it was 60.9%; with IST-MEL1, 70.7%; in the test on LB2518-MEL it was 61.9%; in the test on LOXIMVI, 45.5%; with MEL-HO it was 45.7%. Also, the cell count with MZ2-MEL is 54.8%; in the test on MeWo it was 57%; in the test on RPMI7951, 86.3%; in the test with RVH-421, 26%.
For the molecule `COc1cc([C@@H]2c3cc4c(cc3[C@@H](O[C@@H]3O[C@@H]5CO[C@@H](C)O[C@H]5[C@H](O)[C@H]3O)[C@H]3COC(=O)[C@H]23)OCO4)cc(OC)c1O` [etoposide] + COCC[n+]1c2c(n(Cc3cnccn3)c1C)C(=O)c1ccccc1C2=O [YM155] (first compound 0.1 µM, partner dose 0.002 µM), the cell count with G361 was found to be 90.2%; in the test with IPC-298, 47.6%; with IST-MEL1 it was 40.3%; in the test on LB2518-MEL, 27.9%; with LOXIMVI, 65.8%; in the test with MEL-HO it was 95.9%. Moreover, the cell count in the test with MZ2-MEL is 28.8%; in the test with MeWo, 39.1%; with RPMI7951 it was 36.7%; in the test with RVH-421 it was 93.5%.
On to `CCN(CC)CCNC(=O)c1c(C)[nH]c(/C=C2\C(=O)Nc3ccc(F)cc32)c1C` [sunitinib] + NC1(c2ccc(-c3nc4ccn5c(=O)[nH]nc5c4cc3-c3ccccc3)cc2)CCC1 [MK2206] (first compound 2 µM, partner dose 2 µM), for which the cell count in the test on G361 was found to be 67.8%; in the test with IPC-298, 59.6%; in the test with IST-MEL1 it was 76.1%; in the test on LB2518-MEL, 45.6%; in the test with LOXIMVI it was 98.5%; in the test with MEL-HO it was 63.9%. Also, the cell count in the test on MZ2-MEL stood at 85.6%; in the test with MeWo, 52.7%; in the test on RPMI7951 it was 75%; with RVH-421, 63.3%.
For the molecule `C[C@]1(O)C[C@@H](c2nc(-c3ccc4ccc(-c5ccccc5)nc4c3)c3c(N)nccn32)C1` + CCN(CC)CCCCNc1ncc2cc(-c3cc(OC)cc(OC)c3)c(NC(=O)NC(C)(C)C)nc2n1 [PD173074] (first compound 2 µM, partner dose 0.5 µM), the cell count with G361 was 86.8%; in the test with IPC-298 it was 99.5%; in the test with IST-MEL1, 105%; in the test with LB2518-MEL, 87.8%; in the test on LOXIMVI it was 146%; in the test on MEL-HO, 98.5%. The cell count in the test on MZ2-MEL turned out to be 97.5%; in the test on MeWo it was 79.1%; in the test with RPMI7951, 91.6%; with RVH-421, 97.8%.
With `CCN(CC)CCNC(=O)c1c(C)[nH]c(/C=C2\C(=O)Nc3ccc(F)cc32)c1C` [sunitinib] + COc1cc(Nc2ncc(F)c(Nc3ccc4c(n3)NC(=O)C(C)(C)O4)n2)cc(OC)c1OC [Tamatinib] (first compound 2 µM, partner dose 2 µM), the cell count amounted to 66.6% in the test on G361; 84.7% in the test with IPC-298; 66.6% with IST-MEL1; 106% in the test on LB2518-MEL; 30.7% in the test with LOXIMVI; 79.6% with MEL-HO. The cell count in the test on MZ2-MEL was 82.4%; in the test on MeWo, 70%; in the test on RPMI7951, 19.3%; in the test with RVH-421 it was 119%.
